Experimental data published in article PMC4741835.
These are yes or no findings as the source states them, for the method shown. Some binding calls cover weakened binding; strength is not graded here. Tags and fused reporters may be left off the sequences shown. Each block holds one binder with its values, some of them ahead of it.

What was measured:
[1] = biological target: T1, full-length HRGβ2 (heregulin isoform β2) fused to the GAL4 DNA-binding domain (pGBKT7-HRGβ2 bait) (human) (UniProt Q02297); assay: two-hybrid; pairwise co-transformation of AH109 with GAL4 AD fusions of full-length or deleted RAP1 and the GAL4 DNA-BD fusion of full-length HRGβ2; growth on selective medium and β-galactosidase activity
T1 sequence: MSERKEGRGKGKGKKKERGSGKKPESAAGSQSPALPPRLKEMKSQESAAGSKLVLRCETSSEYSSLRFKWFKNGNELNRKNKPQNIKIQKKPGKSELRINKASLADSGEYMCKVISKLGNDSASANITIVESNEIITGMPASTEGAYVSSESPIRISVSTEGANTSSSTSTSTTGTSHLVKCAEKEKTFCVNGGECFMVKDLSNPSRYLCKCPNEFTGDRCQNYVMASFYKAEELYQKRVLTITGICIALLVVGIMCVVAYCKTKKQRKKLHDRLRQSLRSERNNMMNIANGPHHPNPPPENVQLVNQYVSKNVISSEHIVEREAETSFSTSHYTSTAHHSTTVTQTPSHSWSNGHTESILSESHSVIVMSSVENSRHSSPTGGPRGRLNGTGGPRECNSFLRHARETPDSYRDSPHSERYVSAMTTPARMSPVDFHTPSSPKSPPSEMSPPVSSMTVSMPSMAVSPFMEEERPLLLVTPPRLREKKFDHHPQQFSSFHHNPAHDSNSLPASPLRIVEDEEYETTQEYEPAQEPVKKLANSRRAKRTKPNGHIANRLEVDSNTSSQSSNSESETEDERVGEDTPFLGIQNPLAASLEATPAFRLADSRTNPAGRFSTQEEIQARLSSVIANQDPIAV

[2] = biological target: T1, full-length HRGβ2 (heregulin isoform β2) fused to the GAL4 DNA-binding domain (pGBKT7-HRGβ2 bait) (human); assay: two-hybrid; library screen: pGBKT7-HRGβ2 bait against the human mammary gland Matchmaker cDNA library in pACT2, yeast strain AH109, selection on medium lacking Ade, His, Leu and Trp with X-α-Gal

binding [1]: binds
B3: RAP1 ΔBRCT (amino acids 129-399) fused to the GAL4 activation domain (domain or fragment, UniProt Q9NYB0 129-399)
chain: RHAGRIAFTDADDVAILTYVKENARSPSSVTGNALWKAMEKSSLTQHSWQSLKDRYLKHLRGQEHKYLLGDAPVSPSSQKLKRKAEEDPEAADSGEPQNKRTPDLPEEEYVKEEIQENEEAVKKMLVEATREFEEVVVDESPPDFEIHITMCDDDPPTPEEDSETQPDEEEEEEEEKVSQPEVGAAIKIIRQLMEKFNLDLSTVTQAFLKNSGELEATSAFLASGQRADGYPIWSRQDDIDLQKDDEDTREALVKKFGAQNVARRIEFRKK

binding [1]: binds
B8: RAP1 ΔMyb (amino acids 1-132 and 192-399) fused to the GAL4 activation domain (domain or fragment, UniProt Q9NYB0)
chain: MAEAMDLGKDPNGPTHSSTLFVRDDGSSMSFYVRPSPAKRRLSTLILHGGGTVCRVQEPGAVLLAQPGEALAEASGDFISTQYILDCVERNERLELEAYRLGPASAADTGSEAKPGALAEGAAEPEPQRHAGEHKYLLGDAPVSPSSQKLKRKAEEDPEAADSGEPQNKRTPDLPEEEYVKEEIQENEEAVKKMLVEATREFEEVVVDESPPDFEIHITMCDDDPPTPEEDSETQPDEEEEEEEEKVSQPEVGAAIKIIRQLMEKFNLDLSTVTQAFLKNSGELEATSAFLASGQRADGYPIWSRQDDIDLQKDDEDTREALVKKFGAQNVARRIEFRKK

The remaining lines, values behind:

B1: RAP1 ΔLink (amino acids 1-198 and 224-399) fused to the GAL4 activation domain (domain or fragment, UniProt Q9NYB0)
chain: MAEAMDLGKDPNGPTHSSTLFVRDDGSSMSFYVRPSPAKRRLSTLILHGGGTVCRVQEPGAVLLAQPGEALAEASGDFISTQYILDCVERNERLELEAYRLGPASAADTGSEAKPGALAEGAAEPEPQRHAGRIAFTDADDVAILTYVKENARSPSSVTGNALWKAMEKSSLTQHSWQSLKDRYLKHLRGQEHKYLLGEPQNKRTPDLPEEEYVKEEIQENEEAVKKMLVEATREFEEVVVDESPPDFEIHITMCDDDPPTPEEDSETQPDEEEEEEEEKVSQPEVGAAIKIIRQLMEKFNLDLSTVTQAFLKNSGELEATSAFLASGQRADGYPIWSRQDDIDLQKDDEDTREALVKKFGAQNVARRIEFRKK
binding [1]: no binding

B2: full-length RAP1 fused to the GAL4 activation domain (pACT2-hRap1) (protein, UniProt Q9NYB0 1-399)
chain: MAEAMDLGKDPNGPTHSSTLFVRDDGSSMSFYVRPSPAKRRLSTLILHGGGTVCRVQEPGAVLLAQPGEALAEASGDFISTQYILDCVERNERLELEAYRLGPASAADTGSEAKPGALAEGAAEPEPQRHAGRIAFTDADDVAILTYVKENARSPSSVTGNALWKAMEKSSLTQHSWQSLKDRYLKHLRGQEHKYLLGDAPVSPSSQKLKRKAEEDPEAADSGEPQNKRTPDLPEEEYVKEEIQENEEAVKKMLVEATREFEEVVVDESPPDFEIHITMCDDDPPTPEEDSETQPDEEEEEEEEKVSQPEVGAAIKIIRQLMEKFNLDLSTVTQAFLKNSGELEATSAFLASGQRADGYPIWSRQDDIDLQKDDEDTREALVKKFGAQNVARRIEFRKK
binding [1]: binds

B4: RAP1 amino acid residues 127-259 (positive clone #480 of the human mammary gland cDNA library in pACT2) (domain or fragment, UniProt Q9NYB0 127-259)
chain: PQRHAGRIAFTDADDVAILTYVKENARSPSSVTGNALWKAMEKSSLTQHSWQSLKDRYLKHLRGQEHKYLLGDAPVSPSSQKLKRKAEEDPEAADSGEPQNKRTPDLPEEEYVKEEIQENEEAVKKMLVEATR
binding [2]: binds

B5: SC-35 amino acid residues 116-221, C-terminal serine/arginine-rich domain (positive clone #415) (domain or fragment, UniProt Q01130 116-221)
chain: GRRSRSPRRRRRSRSRSRSRSRSRSRSRYSRSKSRSRTRSRSRSTSKSRSARRSKSKSSSVSRSRSRSRSRSRSRSPPPVSKRESKSRSRSKSPPKSPEEEGAVSS
binding [2]: binds

B6: RAP1 ΔRCT (amino acids 1-290, with an N-terminal nuclear localization signal PRRK) fused to the GAL4 activation domain (domain or fragment, UniProt Q9NYB0 1-290)
chain: PRRKMAEAMDLGKDPNGPTHSSTLFVRDDGSSMSFYVRPSPAKRRLSTLILHGGGTVCRVQEPGAVLLAQPGEALAEASGDFISTQYILDCVERNERLELEAYRLGPASAADTGSEAKPGALAEGAAEPEPQRHAGRIAFTDADDVAILTYVKENARSPSSVTGNALWKAMEKSSLTQHSWQSLKDRYLKHLRGQEHKYLLGDAPVSPSSQKLKRKAEEDPEAADSGEPQNKRTPDLPEEEYVKEEIQENEEAVKKMLVEATREFEEVVVDESPPDFEIHITMCDDDPPTPEED
binding [1]: binds

B7: RAP1 ΔRΔC (ΔRCT/ΔCoil-Coil, amino acids 1-227, with an N-terminal nuclear localization signal PRRK) fused to the GAL4 activation domain (domain or fragment, UniProt Q9NYB0 1-227)
chain: PRRKMAEAMDLGKDPNGPTHSSTLFVRDDGSSMSFYVRPSPAKRRLSTLILHGGGTVCRVQEPGAVLLAQPGEALAEASGDFISTQYILDCVERNERLELEAYRLGPASAADTGSEAKPGALAEGAAEPEPQRHAGRIAFTDADDVAILTYVKENARSPSSVTGNALWKAMEKSSLTQHSWQSLKDRYLKHLRGQEHKYLLGDAPVSPSSQKLKRKAEEDPEAADSGEPQN
binding [1]: binds
